Some of the results follow.
Test system: PfSIP2 AP2 domain 1 (GST-tagged)
Test: gcPBM binding intensity (ln(normalized median fluorescence intensity)); higher = stronger DNA binding
In short: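 In this array assay, P. falciparum DNA-binding domains with a GST tag, expressed in E. coli, were applied for 1 h to primer-extended double-stranded 36-bp intergenic genomic probes and negative controls on an Agilent 4 × 180k array. Bound protein was visualised with Alexa488 anti-GST antibody at 488 nm. Binding intensity is the highest Masliner-normalised natural-log median intensity across replicate spots of either probe orientation.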

Row | Sequence | gcPBM binding intensity (ln)
1 | TATACATATGTATGCACACATACATACCCATATAAT [CACACA_site5842] | 7.11
2 | CTATATATAAAATATTGTACTTATTTTTATTACATC [XGTACX_site3963] | 7.21
3 | TTTTCTCAATTTTGGTGTACTTTTTTCTTAACACAT [XGTACX_site8918] | 7.29
4 | TATTTAAAATATTAAATTTGTAAAGTTCGAGGGAAG [GTGCAC_negctrl_site337] | 7.19
5 | GAAAAAAAAATATCTTGTACTTACATAACTATTGGT [XGTACX_site5326] | 7.04
6 | AAAGGTTTATCTGATACACACATAAGTGATCAGGTT [CACACA_site6233] | 6.76
7 | TAAATTAAAAAACATAAACTATTGGAAACGCATTGA [CACACA_negctrl_site935] | 6.74
8 | ACACAATAAACATTATGTACATATAATGTTCTGTGT [XGTACX_site3381] | 6.95
9 | AATGATAATCTATTATGTACACATATATTCTTATGT [XGTACX_site4148] | 6.93
10 | TATATATATATATTATGTACATATATAAATTAACAT [XGTACX_site3368] | 9.08
11 | AATATAGGAATATGCACACATATATACATACATACA [CACACA_site1521] | 7.55
12 | TTTTTTAAAGTTTAAAGTACATATAAAAATATATAA [XGTACX_site5267] | 6.79
13 | TATGAAAAAAAAAAAAAAAAAAAAAAAAAAAAAAAA [XGTACX_negctrl_site587] | 6.99
14 | TATATATGGATATATACACACAACGGTTATAAATAT [CACACA_site6655] | 6.91
15 | AAAAAAATAAAATATATATATATATATATATATATA [GTGCAC_negctrl_site706] | 9.72
16 | AATTAATAAAAAAGGTGTACAGTAAATGCAATAATC [XGTACX_site7956] | 7.65
17 | TCTTTTATATATAATAATTATATATAACATTCAAAC [GTGCAC_negctrl_site112] | 7.1
18 | ATAAATTCATACATTTGTACACAAAAAAAAAAAAAA [XGTACX_site2435] | 7.13
19 | CCTTATACGATATTATGTACGCATATGTGCATTTTT [XGTACX_site1570] | 7.21

Row | Sequence | gcPBM binding intensity (ln)
20 | ATATATATATATTTATGTACATATTATTTATTCTTT [XGTACX_site6567] | 9.33
21 | ATTATTTGATTAAAGGTGCAAGGATAATAATAAAAC | 10.3
22 | TAATGGTATAAAAAATGTACATGTTTTTTTACAATT [XGTACX_site4285] | 6.99
23 | TATTATATAATATACTGTACAATATCCATTATTTAC [XGTACX_site7091] | 7.06
24 | TATATTTACTTATATGCACACATAAATGTGAATTAT [CACACA_site9258] | 7.12
25 | ACATATAATAAAATAGTGCATTGTTAGTTTTATATA | 9.85
26 | AAAGGAAAAGTTGACTGTACATAAGTAAAAAATAAT [XGTACX_site788] | 7.01
27 | AAAAAAAAAAAAAACACACAGAAATATATATATATT [CACACA_site832] | 7.16
28 | TTTATACAAATATGTACACACTAAATATATATTATG [CACACA_site4413] | 7.13
29 | ATTCATTCCATACTTTAACACACAAATATATTTAAT [CACACA_site7930] | 7.48
30 | TTTTTGTAACCGATTCTGCACTGAGAAGCACATATA | 7.65
31 | ATATTATACGCATATGTGCGCATACATTTTTTTGCA [GTGCAC_site9540] | 8.44
32 | TTATTTACAAAACAAATCAAAATATCCAAAAGAATA [CACACA_negctrl_site1789] | 6.61
33 | GAAATTACTTTATAAACACACATTTATTTTATTTTA [CACACA_site7007] | 6.91
34 | GGCATATATATATGCACACATACATATATACATGTG [CACACA_site3859] | 7.34
35 | TACACATACAGACATACACACATACCCATATACTCA [CACACA_site5037] | 7.21
36 | TCATATTTATATAAATGTACTTAATTGGTTTCTTTA [XGTACX_site7848] | 6.59
37 | ATGTTATTAATAATTGCACACATTTTTTTTTTTTTT [CACACA_site3920] | 7.56
38 | AGATTGTAAGTAAACACACACACATATATATGTATA [CACACA_site675] | 6.96

Row | Sequence | gcPBM binding intensity (ln)
39 | TTTGTATTAAAAAAAAAAAAAAAAAAAATGAATAAA [TGCATGCA_negctrl_site292] | 6.71
40 | ATAACGGAAAAAAAAAGTACATGATATAAACATGAA [XGTACX_site8428] | 6.91
41 | TTTTTTTTTTTTTTTTTTTTTTTTCATTTGATATTA [TGCATGCA_negctrl_site112] | 6.97
42 | TTATTTATTCTATGTGCATGTTATTTTTTTTTTTCG [TGCATGCA_site262] | 7.6
43 | AAAAATAAGATATATACACACATATAAATATAAATA [CACACA_site7396] | 6.82
44 | TATATATATATATGTGGTACATAAAATTATTATTTT [XGTACX_site4554] | 9.55
45 | ATAAAATTATCTACATGTACTCATATATATTTGTTT [XGTACX_site5911] | 7.17
46 | AGAGAGAAAGTTATAACATGCAACAATTTTTAGAAG [TGCATGCA_site1] | 6.97
47 | CTTTAAACCCTGAACACACACAAATACACCCAAAAA [CACACA_site4297] | 7.39
48 | TTTTTATGTGTATATTATTACATTTACATCTTTAAC [CACACA_negctrl_site1676] | 6.88
49 | ACAAGACAACAAGGAAGTACTCATAAATATATTTGG [XGTACX_site1423] | 6.98
50 | CTCACATATATATATAGTACAATTTTTTTTTTTTTT [XGTACX_site5999] | 7.28
51 | ATGTAGAATTGTAAATGTACATGAAACACATATTCA [XGTACX_site3436] | 6.94
52 | AAGAAAAATACTACGTGTACCAAACTTCCTACCAAC [XGTACX_site1426] | 6.82
53 | TATATATATATATTATGTACATATAAATATATTTTT [XGTACX_site1509] | 9.46
54 | TGTAAATATAAAAGATAATGATAAAAGGGACATTTT [CACACA_negctrl_site661] | 6.74
55 | AATATATATATGTGTACACATCCAAAATAGGCATAC [CACACA_site5705] | 7.49
56 | ATCTATATTATAATAACACACATATATTATAGTATA [CACACA_site6330] | 7.02
57 | ATATATATATAAATATGTACATATTTATATATGAAT [XGTACX_site3220] | 8.51

Reference: the supplement of paper PMC11417369
